# Source: publication PMC4242493
# Some of the results follow. The list includes weakly bound sequences.
# Target: MaxL homodimer (UniProt P61244)
# Experiment: universal protein-binding microarray (PBM)
# Conditions: PBS-based mixture, 10 nM His-tagged protein dimer, 2% milk, 200 ng/uL BSA, 50 ng/uL salmon testes DNA, 0.02% TX-100; detection with Alexa 488 anti-His …; high values mean tight binding; most listed sequences are background and not binding sites; double strand, one strand shown
# Chain of UniProt P61244 (P61244 whole entry): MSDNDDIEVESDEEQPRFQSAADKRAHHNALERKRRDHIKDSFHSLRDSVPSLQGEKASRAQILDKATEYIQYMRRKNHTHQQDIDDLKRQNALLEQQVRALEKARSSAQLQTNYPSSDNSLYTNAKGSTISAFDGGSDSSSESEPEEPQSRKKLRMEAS
row,Sequence,binding signal (normalized occupancy)
1,AGAGGAGC,0.0702
2,CCCTGCAG,0.0741
3,CGAGCCCG,0.0709
4,ATGACGAA,0.08
5,CCGAACAC,0.0746
6,TCAATAGA,0.0745
7,AGAAAGAA,0.0717
8,CACCGCAG,0.0708
9,ATGTAGGG,0.0801
10,ACGCAGAC,0.0795
11,ACGATACC,0.0802
12,GCCCGAAA,0.0716
13,CCAAAGCA,0.0743
14,AAGCCATT,0.0716
15,TCACCTAA,0.071
16,ATTAAGAC,0.0768
17,ACTGTCTA,0.0741
18,CGCGGAAC,0.0717
19,AGCACATA,0.0807
20,CGCCTGGA,0.0737
21,CGAAACCC,0.0797
22,AAGGGCTA,0.0706
23,CGAAGACC,0.0732
24,CTCACGCA,0.0822
25,CCCTATTA,0.0764

row,Sequence,binding signal (normalized occupancy)
1,ATTGGTAG,0.0752
2,CCGGTTAC,0.0684
3,AAAGGCGC,0.0655
4,CCCGGTGC,0.075
5,GCAACCAC,0.0744
6,ACGCTCTG,0.0729
7,AACGTAGT,0.071
8,ATCTAATA,0.0811
9,ATATGTGA,0.0878
10,ACGTTAGA,0.0821
11,TATGGTGA,0.0762
12,AAGCTGTG,0.0731
13,ATTTAGGA,0.074
14,AAGTACTA,0.075
15,AATCTGCG,0.0705
16,AGCGAAAT,0.0722
17,GTATCAAA,0.0766
18,GACGGCCC,0.0691
19,AAGCCGCA,0.0725
20,ATAGTAGA,0.0855
21,CACAGCGG,0.0723
22,CATCCTAC,0.0829
23,AAGTGCAT,0.085
24,AATAAGAA,0.0768
25,AACGCAGC,0.0688

row,Sequence,binding signal (normalized occupancy)
1,GCGACCAA,0.0697
2,ACGTCAAC,0.0789
3,AGCGAACG,0.0697
4,GGATCCGA,0.0733
5,ATAGCGGG,0.0752
6,ATAGGGTG,0.0803
7,GGCGGTAA,0.0743
8,ATATAACG,0.0788
9,GGTTGTAC,0.0749
10,GCTGAGAC,0.072
11,ATGAAACG,0.0811
12,GAGGAATA,0.0804
13,AGAAGGTG,0.0734
14,GGCACGCC,0.0877
15,CACAAGAA,0.0762
16,AATGAATC,0.0768
17,AGTGGTAT,0.0779
18,AGTGATCA,0.0742
19,AGGGGCAC,0.0757
20,GATTGAAA,0.0807
21,AAGCGTCG,0.0714
22,AGGAAGTC,0.0746
23,ACGATTGG,0.0798
24,ATTGATCA,0.0751
25,CTAGGCAA,0.0665

row,Sequence,binding signal (normalized occupancy)
1,GATGGGTA,0.0854
2,CCTGATCC,0.0777
3,TTAGCTAA,0.0733
4,CCTCAGTA,0.0673
5,ACCCTCCC,0.0812
6,AGAGTACG,0.0711
7,CGTAGATC,0.0785
8,AGCAAGAG,0.0711
9,CCTATTAA,0.0743
10,CGTGCTAA,0.0881
11,AGTAAATA,0.073
12,GCATAAAC,0.0764
13,GACACGGA,0.0754
14,CCGCGCCA,0.0754
15,ACCGCTAC,0.0748
16,TACAAGTA,0.0813
17,TCACTAAA,0.0781
18,TAAAACCA,0.0783
19,CCGCTTAA,0.0692
20,CTGATGTA,0.0796
21,AATATGAA,0.0804
22,CCAAGTTA,0.0778
23,ACCAAGCA,0.081
24,GAGCCCTA,0.0678
25,CTCCTTAA,0.0723

row,Sequence,binding signal (normalized occupancy)
1,AAGTCCCT,0.0687
2,AAAAACAC,0.0787
3,GAAAATAA,0.0739
4,AAAGCTAC,0.0713
5,ATACGAGG,0.084
6,CCTATAAA,0.0756
7,AGCGCTGC,0.068
8,ACGTTGCT,0.0755
9,CTCCCTAC,0.0784
10,CGACAAAA,0.0733
11,CATACCCA,0.079
12,GAAGCAAA,0.0716
13,AAGCCTTG,0.0708
14,ATATTGTC,0.0781
15,CAGGAACA,0.0782
16,GAAGACAC,0.0758
17,ACCAACCA,0.0767
18,ATGGAAAT,0.084
19,AACACGGA,0.0756
20,CAGCATTC,0.0775
21,CGACGGGC,0.0722
22,CATGCTCA,0.099
23,GATTTCTA,0.0702
24,AATAACCG,0.0777
25,AAGCGTAC,0.0746

row,Sequence,binding signal (normalized occupancy)
1,GAGAGCCA,0.074
2,AGCAAACT,0.0759
3,ACTCTAGG,0.071
4,AATAGTGT,0.0804
5,CAGCGATG,0.0775
6,CACATGCC,0.134
7,AGGGCGTC,0.0752
8,CTCTCTAA,0.0677
9,GGATGTAA,0.0766
10,AACTTGTC,0.0708
11,ATGTTTTG,0.0773
12,ACCGCGGT,0.0722
13,GGTGTCTA,0.0774
14,GGGCTTAC,0.0714
15,GCGCATTA,0.0762
16,AAGCTACA,0.0711
17,CCAATCGC,0.0747
18,ATTCTGCC,0.0687
19,CGTGGACC,0.0747
20,CCGGACCG,0.0658
21,ATCTCGAC,0.0735
22,CGACTACA,0.0812
23,AACCCGCC,0.075
24,CGCCCGCC,0.0709
25,GCAAAAGA,0.0674

row,Sequence,binding signal (normalized occupancy)
1,ATATGGCA,0.098
2,AAGCTGCC,0.0711
3,GACATGTC,0.0872
4,ACGGGAAG,0.0801
5,CATCCAGC,0.0758
6,CGTATTCA,0.0748
7,CAGACGGG,0.0705
8,CACCTAAC,0.0738
9,TAAGTATA,0.0772
10,ACGTATGC,0.0778
11,ACAGCCGC,0.0693
12,CTGGCTGA,0.0689
13,ACGAGCAA,0.0809
14,AAGAATTC,0.0705
15,AATGCGGA,0.0802
16,CTTGGATC,0.0746
17,CCCCTGAA,0.0781
18,CTGTTAAG,0.0755
19,ATAGTTTC,0.0746
20,AACTCCAG,0.0726
21,GCCCTGTA,0.0736
22,CCTACTCA,0.0764
